This is an account of results in the supplement of paper PMC8728848.

Holding throughout (experiment): glycan array binding signal (z-score within array); higher = stronger binding
Common to all, as to conditions: glycan notation: IUPAC condensed, linker removed; mutation: H262T

Test [1] has as its target Gal(b1-4)GlcNAc(b1-3)Gal(b1-4)GlcNAc(b1-3)Gal(b1-4)GlcNAc(b1-3)Gal(b1-4)GlcNAc(b1-2)Man(a1-3)[Gal(b1-4)GlcNAc(b1-3)Gal(b1-4)GlcNAc(b1-3)Gal(b1-4)GlcNAc(b1-3)Gal(b1-4)GlcNAc(b1-2)Man(a1-6)]Man(b1-4)GlcNAc(b1-4)GlcNAc. Put shortly:
(§1)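 The binding signal is a Z-score computed within each array. Data were drawn from 3228 arrays in the Consortium for Functional Glycomics database, restricted to those with a known protein sequence. Scores were averaged over arrays of the same protein sequence at different concentrations or buffers, and over linkers, and negative values can be taken as non-binding.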

For test [2], the target named is Gal(b1-4)GlcNAc(b1-3)Gal(b1-4)GlcNAc(b1-3)Gal(b1-4)GlcNAc(b1-3)Gal(b1-4)GlcNAc(b1-2)Man(a1-3)[Gal(b1-4)GlcNAc(b1-3)Gal(b1-4)GlcNAc(b1-3)Gal(b1-4)GlcNAc(b1-3)Gal(b1-4)GlcNAc(b1-2)Man(a1-6)]Man(b1-4)GlcNAc(b1-4)[Fuc(a1-6)]GlcNAc. Put shortly: as §1
Test [3] addresses Gal(b1-4)GlcNAc(b1-3)Gal(b1-4)GlcNAc(b1-3)Gal(b1-4)GlcNAc(b1-3)Gal(b1-4)GlcNAc(b1-2)[Gal(b1-4)GlcNAc(b1-3)Gal(b1-4)GlcNAc(b1-3)Gal(b1-4)GlcNAc(b1-3)Gal(b1-4)GlcNAc(b1-6)]Man(a1-6)[Gal(b1-4)GlcNAc(b1-3)Gal(b1-4)GlcNAc(b1-3)Gal(b1-4)GlcNAc(b1-3)Gal(b1-4)GlcNAc(b1-2)Man(a1-3)]Man(b1-4)GlcNAc(b1-4)[Fuc(a1-6)]GlcNAc. An outline of the steps: as §1
The target in test [4] is Gal(b1-4)GlcNAc(b1-3)Gal(b1-4)GlcNAc(b1-3)Gal(b1-4)GlcNAc(b1-3)Gal(b1-4)GlcNAc(b1-3)Gal(b1-4)GlcNAc(b1-2)Man(a1-3)[Gal(b1-4)GlcNAc(b1-3)Gal(b1-4)GlcNAc(b1-3)Gal(b1-4)GlcNAc(b1-3)Gal(b1-4)GlcNAc(b1-3)Gal(b1-4)GlcNAc(b1-2)Man(a1-6)]Man(b1-4)GlcNAc(b1-4)GlcNAc. Put shortly:
as §1

Test [5] addresses Gal(b1-4)GlcNAc(b1-3)Gal(b1-4)GlcNAc(b1-3)Gal(b1-4)GlcNAc(b1-3)Gal(b1-4)GlcNAc(b1-3)Gal(b1-4)GlcNAc(b1-2)Man(a1-3)[Gal(b1-4)GlcNAc(b1-3)Gal(b1-4)GlcNAc(b1-3)Gal(b1-4)GlcNAc(b1-3)Gal(b1-4)GlcNAc(b1-3)Gal(b1-4)GlcNAc(b1-2)Man(a1-6)]Man(b1-4)GlcNAc(b1-4)[Fuc(a1-6)]GlcNAc. Put shortly: as §1
Test [6] concerns the target Gal(b1-4)GlcNAc(b1-3)Gal(b1-4)GlcNAc(b1-3)Gal(b1-4)GlcNAc(b1-3)Gal(b1-4)GlcNAc(b1-3)Gal(b1-4)GlcNAc(b1-2)[Gal(b1-4)GlcNAc(b1-3)Gal(b1-4)GlcNAc(b1-3)Gal(b1-4)GlcNAc(b1-3)Gal(b1-4)GlcNAc(b1-3)Gal(b1-4)GlcNAc(b1-6)]Man(a1-6)[Gal(b1-4)GlcNAc(b1-3)Gal(b1-4)GlcNAc(b1-3)Gal(b1-4)GlcNAc(b1-3)Gal(b1-4)GlcNAc(b1-3)Gal(b1-4)GlcNAc(b1-2)Man(a1-3)]Man(b1-4)GlcNAc(b1-4)[Fuc(a1-6)]GlcNAc. An outline of the steps: as §1

Test [7] concerns the target Gal(b1-4)GlcNAc(b1-3)Gal(b1-4)GlcNAc(b1-3)Gal(b1-4)GlcNAc(b1-3)Gal(b1-4)GlcNAc(b1-3)Gal(b1-4)GlcNAc(b1-3)Gal(b1-4)GlcNAc(b1-2)Man(a1-3)[Gal(b1-4)GlcNAc(b1-3)Gal(b1-4)GlcNAc(b1-3)Gal(b1-4)GlcNAc(b1-3)Gal(b1-4)GlcNAc(b1-3)Gal(b1-4)GlcNAc(b1-3)Gal(b1-4)GlcNAc(b1-2)Man(a1-6)]Man(b1-4)GlcNAc(b1-4)GlcNAc. Put shortly:
as §1

For test [8], the target named is Gal(b1-4)GlcNAc(b1-3)Gal(b1-4)GlcNAc(b1-3)GalNAc. An outline of the steps: as §1
Test [9] deals with Gal(b1-4)GlcNAc(b1-3)Gal(b1-4)GlcNAc(b1-3)[Gal(b1-4)GlcNAc(b1-3)Gal(b1-4)GlcNAc(b1-6)]GalNAc. Put shortly: as §1
For test [10], the target named is Gal(b1-4)GlcNAc(b1-3)Gal(b1-4)GlcNAc(b1-6)[Gal(b1-3)]GalNAc. An outline of the steps:
as §1

For test [11], the target named is Gal(b1-4)GlcNAc(b1-3)Gal(b1-4)[Fuc(a1-3)]GlcNAc(b1-3)Gal(b1-4)[Fuc(a1-3)]GlcNAc. Put shortly:
as §1

Test [12] addresses Gal(b1-4)GlcNAc(b1-3)GalNAc. An outline of the steps: as §1
The target of test [13] is Gal(b1-4)GlcNAc(b1-3)[Fuc(a1-3)GlcNAc(b1-6)]Gal(b1-4)Glc. Put shortly: as §1
For test [14], the target named is Gal(b1-4)GlcNAc(b1-3)[Gal(b1-4)GlcNAc(b1-6)]Gal(b1-4)GlcNAc. An outline of the steps:
as §1

In test [15] the target is Gal(b1-4)GlcNAc(b1-3)[GlcNAc(b1-6)]Gal(b1-4)GlcNAc. Put shortly: as §1
Test [16] deals with Gal(b1-4)GlcNAc(b1-6)Gal(b1-4)GlcNAc. Put shortly: as §1
Test [17] has as its target Gal(b1-4)GlcNAc(b1-6)GalNAc. An outline of the steps:
as §1

Test [18] addresses Gal(b1-4)GlcNAc(b1-6)[Gal(b1-3)]GalNAc. Put shortly: as §1
Test [19] deals with Gal(b1-4)GlcNAc(b1-6)[Gal(b1-4)GlcNAc(b1-3)]GalNAc. Put shortly: as §1
The target in another test is Gal(b1-4)GlcNAc6P. An outline of the steps:
as §1

Another test deals with Gal(b1-6)Gal. Put shortly: as §1
In the next test the target is Gal3S(b1-3)GalNAc. Put shortly:
as §1

A further test deals with Gal3S(b1-3)GlcNAc. Put shortly:
as §1

Some of the results follow.

B1: MGL6A (Homo sapiens) (protein)
chain: MTRTYENFQYLENKVKVQGFKNGPLPLQSLLQRLCSGPCHLLLSLGLGLLLLVIICVVGFQNSKFQRDLVTLRTDFSNFTSNTVAEIQALTSQGSSLEETIASLKAEVEGFKQERQAVHSEMLLRVQQLVQDLKKLTCQVATLNNNGEEASTEGTCCPVNWVEHQDSCYWFSHSGMSWAEAEKYCQLKNAHLVVINSREEQNFVQKYLGSAYTWMGLSDPEGAWKWVDGTDYATGFQNWKPGQPDDWQGHGLGGGEDCAHFTPDGRWNDDVCQRPYHWVCEAGLGQTSQESH
With B1, the “glycan array binding signal (z-score)” value in [1] is -0.158; in test [2], -0.161; in test [3], -0.159; in test [4], -0.159; in test [5], -0.128; in test [6], -0.14. In addition, the “glycan array binding signal (z-score)” value is -0.159 in [7]; -0.172 in test [8]; -0.169 in test [9]; -0.174 in test [10]; -0.173 in test [11]; -0.177 in test [12]. In addition, the “glycan array binding signal (z-score)” value is -0.174 in test [13]; -0.165 in [14]; -0.176 in test [15]; -0.172 in test [16]; 3.65 in [17]; -0.17 in test [18]. Also, the “glycan array binding signal (z-score)” value in test [19] was -0.172; in the test with Gal(b1-4)GlcNAc6P, -0.172; with Gal(b1-6)Gal, -0.171; in the test with Gal3S(b1-3)GalNAc, -0.163; in the test with Gal3S(b1-3)GlcNAc it was -0.208.
